# From the supplement of paper PMC3656093
# ± gives the standard deviation of the averaged measurements. Over roughly 1,900 compounds, “CD40L-induced NF-kB luciferase activity, plate-corrected, relative to DMSO (0) and IKK inhibitor VII (-100) controls” has its median near 0.032; the lowest 2% begin near -26. The list shows a part of the results.
# Tested on: BL2-NFkB-Luc
# Test: CD40L-induced NF-kB luciferase activity, plate-corrected, relative to DMSO (0) and IKK inhibitor VII (-100) controls (% normalized activity); higher = more NF-kB reporter activity (less inhibition)
# Conditions: 9.4 µM; stimulus: tCD40L 64 ng/ml; 4.5 h
# Description: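 BL2 B cells with a stable NF-kB response-element luciferase reporter (BL2-NFkB-Luc), 384-well. Cells were pre-incubated with compound at 9.4 uM for 1 h at 37 C, then stimulated with 64 ng/ml trimerized CD40L for 4.5 h; luciferase was read with Steady-Glo. Signal was normalised per plate in Genedata (median DMSO neutral control = 0, median IKK inhibitor VII at 50 uM = -100) with Assay Median plate-pattern correction; duplicate plates.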
row,SMILES,CD40L-induced NF-kB luciferase activity
1,O=C(O)Cc1ccc(O)c(F)c1,-1.51 ± 2.2
2,O=C(c1ccc([N+](=O)[O-])cc1)N1CCSC1c1ccccc1Cl (stereo not given),4.04 ± 5
3,COc1ccc2nc(C)cc(Nc3ccccc3O)c2c1,-3.8 ± 2.1
4,CN(C)CCCN1c2ccccc2CCc2ccc(Cl)cc21,2.09 ± 1.3
5,O=C(/C=C/c1ccccc1)NC(=O)c1ccccc1O,54 ± 2.5
6,Clc1ccccc1CN1CCc2sccc2C1,1.03 ± 1.4
7,C=CCNc1nc2c(c(=O)n(C)c(=O)n2C)n1CC(=C)C,-20.4 ± 24
8,NS(=O)(=O)c1ccc(CCNC(=O)C2CCCN2C(=O)OCc2ccccc2)cc1 (stereo not given),2.68 ± 0.16
9,COc1cc2c(cc1O)CC[C@@H]1[C@@H]2CC[C@]2(C)[C@@H](O)CC[C@@H]12,1.02 ± 5.1
10,COC(=O)C1=C(C)NC(C)=C(C(=O)OC)C1c1ccccc1[N+](=O)[O-],-3.05 ± 3.8
11,CC1(C(=O)O)CCC(C(=O)NC2CCCCCC2)C1(C)C (stereo not given),2.33 ± 3.5
12,CC(=O)c1cccc(NC(=O)N[C@@H](CC(C)C)C(=O)O)c1,-0.327 ± 2.4
13,O=C(O)Cc1ccccc1Nc1c(Cl)cccc1Cl,-0.787 ± 3.6
14,CCNC(=S)N1CCN(CCN2C(=O)c3cccc4cccc(c34)C2=O)CC1,63.6 ± 2.8
15,O=C1OCCN1N=Cc1ccc([N+](=O)[O-])o1,-0.974 ± 2.2
16,O=c1[nH]cc(F)c(=O)[nH]1,5.81 ± 5
17,CCc1cc2c3c(c(=O)oc2cc1O)CCCC3,2.85 ± 4.5
18,CCCCC[C@H](O)/C=C/[C@@H]1[C@@H](C/C=C\CCCC(=O)O)[C@H]2CO[C@@H]1C2,0.508 ± 0.28
19,COc1ccc(O)c(C(=O)/C=C/c2cc3ccccc3o2)c1,83.3 ± 3.2
20,Nc1ncnc2c1ncn2C1OC(CO)C(O)C1O (stereo not given),7.59 ± 2.4
21,CS(=O)(=O)Oc1ccc2c(c1)O/C(=C\C=C\c1ccccc1)C2=O,-0.6 ± 2.1
22,CC(C)(C)C(=O)Nc1cccc(OC(F)(F)C(F)Cl)c1 (stereo not given),1.52 ± 2.7
23,O=C(O)CCSc1nc2ccccc2s1,-42.3 ± 0.52
24,C[C@]12CCC(=O)C=C1CC[C@@H]1[C@@H]2C(=O)C[C@@]2(C)[C@H]1CC[C@]2(O)C(=O)CO,-6.47 ± 2
25,CC1CCN(C(=O)Oc2ccccc2)CC1,3.44 ± 9.1

row,SMILES,CD40L-induced NF-kB luciferase activity
1,CCOC(=O)N1CCC(=C2c3ccc(Cl)cc3CCc3cccnc32)CC1,-13.7 ± 11
2,N/C(=N\OS(=O)(=O)c1ccc2ccccc2c1)c1cccnc1,-3.05 ± 1.9
3,NC(=O)c1ccccc1O,-0.231 ± 0.98
4,O=C(CN1C(=O)/C(=C/c2cccc(Br)c2)SC1=S)Nc1cccnc1,-0.735 ± 7.1
5,CC(C)=CC/C=C1\CCC(C(=O)O)C(C(=O)O)C1 (stereo not given),-1.05 ± 3.1
6,CSCC[C@H](NC(=O)Nc1ccc(C)cc1C)C(=O)O,-0.608 ± 1.7
7,O=C1c2ccccc2C(=O)C1c1ccccc1,6.89 ± 4.6
8,Clc1ccc2c(c1)C(N1CCNCC1)=Nc1ccccc1O2,-5.25 ± 0.1
9,CCc1cc(=O)oc2cc(OCC=C(C)C)ccc12,4.36 ± 2.6
10,O=C(Nc1ccc(C(=O)NC2CCCCC2)cc1)c1cccnc1,0.625 ± 0.58
11,c1ccc(CC2=NCCN2)cc1,-1.48 ± 3.2
12,CC(C)(Oc1ccc(CCNC(=O)c2ccc(Cl)cc2)cc1)C(=O)O,-4.16 ± 7.8
13,OCCN1CCN(CCCN2c3ccccc3Sc3ccc(C(F)(F)F)cc32)CC1,1.85 ± 5.4
14,CCOC(=O)C(=O)N1CCN(c2ccccc2OC)CC1,-1.99 ± 1.9
15,O=C(NC1CCCCC1)N1CCc2[nH]c3ccccc3c2C1,1.1 ± 4.6
16,CC(=O)OCC(=O)[C@H]1CC[C@H]2[C@@H]3CC=C4C[C@@H](O)CC[C@]4(C)[C@H]3CC[C@]12C,1.14 ± 1.8
17,O=C(O)C1Cc2ccccc2CN1S(=O)(=O)c1ccccc1 (stereo not given),8.62 ± 3.4
18,COc1ccc(C=NCC2COc3ccccc3O2)cc1OC (stereo not given),6.18 ± 0.8
19,O=C(NCCO)c1ccc(Cl)c(Cl)c1,-2.45 ± 0.73
20,Cn1c(=O)[nH]c(=O)c2c1ncn2CCN1CCOCC1,1.76 ± 0.85
21,COc1ccc(N2CCN(C(=S)NCc3ccccc3)CC2)cc1,1.3 ± 1.4
22,N#Cc1cc2c([nH]c1=O)CCCC2,0.467 ± 4.2
23,O=C(CN1CCN(Cc2ccccc2)CC1)N1CCCc2c1c(=O)oc1ccc(O)cc21,2.23 ± 2.3
24,COc1ccccc1C1(CC(=O)N2CCCCC2)CCOC(C(C)C)C1 (stereo not given),-7.48 ± 6.7
25,O=Cc1ccc(OC(=O)c2cccnc2)cc1,0.82 ± 6.7

row,SMILES,CD40L-induced NF-kB luciferase activity
1,COc1ccc(C=NNC(=O)CCc2c(C)n[nH]c2C)c(OC)c1OC,3.32 ± 11
2,O=C1OC(c2ccc(O)cc2)(c2ccc(O)cc2)c2ccccc21,0.943 ± 1.8
3,CCOc1cc(C=O)ccc1OCCSc1ccc(C)cc1,8.64 ± 2
4,COCC1CCCN(Cc2cn[nH]c2-c2cc3ccccc3o2)C1 (stereo not given),-1.43 ± 7.7
5,COc1ccc(CCCC(=O)O)c(C)c1,1.85 ± 1.2
6,CCOc1ccc(C(=O)C(C)=O)c(OCC)c1,2.66 ± 2.9
7,COc1ccc(CN(CCC(c2ccc(F)cc2)C2CCOC(C)(C)C2)C(=O)c2ccco2)cc1 (stereo not given),-4.2 ± 3.9
8,COc1ccc(CNC(=O)C2CCN(C(=O)[C@@H](CC(C)C)NC(=O)OC(C)(C)C)CC2)cc1,0.475 ± 1.7
9,CC(C)(CO)CNC(=O)CC1C(=O)NCCN1CC(c1ccccc1)c1ccccc1 (stereo not given),4.84 ± 3.6
10,CCOC(=O)c1cc2cc3ccccc3cc2[nH]1,81.2 ± 21
11,O=[N+]([O-])c1cc(C=Nn2cnnc2)ccc1N1CCCC1,3.63 ± 0.46
12,Clc1ccc(CCNc2ncnc3nc[nH]c23)cc1,-3.1 ± 2.3
13,CC(C)C(=O)Nc1cccnc1,0.845 ± 5
14,C/C=C/Cn1c(SC)nc2c1c(=O)[nH]c(=O)n2C,-0.907 ± 1.9
15,CCCCN1C[C@H](O)[C@@H](O)[C@H](O)[C@H]1CO,3.27 ± 0.15
16,c1ccc2c(c1)CCCC2C1=NCCN1 (stereo not given),-7.25 ± 2
17,O=C(NCCc1ccccc1)C1CCN(C2CCN(Cc3ccco3)CC2)CC1,-15.7 ± 8.9
18,COC(=O)c1ccccc1NC(=O)NCc1ccccc1,1.83 ± 0.93
19,Nc1ccc(S(=O)(=O)NC(=O)c2ccccc2)cc1,-7.05 ± 4.3
20,CCC(C)NCCOc1ccc(C(C)(C)c2ccccc2)cc1 (stereo not given),3 ± 1.7
21,C=C(CC)C(=O)c1ccc(OCC(=O)O)c(Cl)c1Cl,10.8 ± 5.9
22,C[C@]12CC[C@@H]3c4ccc(O)cc4[C@@H](O)C[C@H]3[C@@H]1CC[C@@H]2O,-4.29 ± 0.53
23,CN1C(C(=O)Nc2ccccn2)C(=O)c2sccc2S1(=O)=O (stereo not given),1.31 ± 6.3
24,NC(=NOS(=O)(=O)c1ccc([N+](=O)[O-])cc1)c1ccncc1,-4.24 ± 1.5
25,Cn1cc(CN(CCO)Cc2cccs2)c(-c2cccc(Cl)c2)n1,-2.19 ± 5.6

row,SMILES,CD40L-induced NF-kB luciferase activity
1,CN1CCC(=C2c3ccccc3C=Cc3ccccc32)CC1,3.08 ± 0.91
2,CN1CCN(CC/C=C2/c3ccccc3Sc3ccc(S(=O)(=O)N(C)C)cc32)CC1,12.4 ± 6.6
3,COc1ccc2oc(C)c(C(N)=O)c2c1,5.21 ± 2.3
4,CC1(C)Cc2ccccc2C(C(Cc2ccccc2)C(N)=O)=N1 (stereo not given),2.48 ± 4.3
5,CC(=O)OC(CC(=O)O)C[N+](C)(C)C (stereo not given),2.22 ± 3.5
6,CC(=O)c1cc2c(cc1NC(=O)c1ccco1)OCCO2,31.7 ± 9.8
7,CC(C)CCOCC(=O)Nc1cccc(C(=O)O)c1,23.4 ± 1
8,Cc1ccc2[nH]c3c(c2c1)CN(C)CC3,1.91 ± 2.5
9,CCCc1cc(C(N)=S)ccn1,0.433 ± 0.41
10,CC(=O)OCC(=O)[C@@]1(O)CC[C@H]2[C@@H]3CCC4=CC(=O)CC[C@]4(C)[C@H]3[C@@H](O)C[C@@]21C,-31.1 ± 6.7
11,COc1ccc(NC(=O)C2CCCN2C(=O)OC(C)(C)C)cc1 (stereo not given),-1.36 ± 0.78
12,CC(=O)Nc1ccc(OS(=O)(=O)c2c(C)cc(C)cc2C)cc1,1.17 ± 2
13,NS(=O)(=O)c1cc(C2(O)NC(=O)c3ccccc32)ccc1Cl (stereo not given),0.0805 ± 1.7
14,O=C(NC(=S)Nc1ccc2c(c1)OCCO2)c1ccccc1F,0.234 ± 0.6
15,O=C1C2C3C=CC(C4CC34)C2C(=O)N1N=Cc1ccc(-c2ccc([N+](=O)[O-])cc2)o1 (stereo not given),-2.78 ± 3.9
16,O=C(O)CCCCCCCC(=O)O,4.18 ± 3.5
17,O=C(NCc1ccc2c(c1)OCO2)c1ccc2c(c1)OCCO2,19.8 ± 2.2
18,CCCCN(CCCC)CCCOC(=O)c1ccc(N)cc1,7.04 ± 4.1
19,COc1ccc(C(=O)NCC2OCCc3ccccc32)cc1 (stereo not given),14.2 ± 3.1
20,CC[N+](C)(C)c1cccc(O)c1,1.9 ± 5.2
21,Cc1ccc(-c2nnc(-c3ccc4c(c3)OCO4)o2)cc1,61 ± 18
22,CN(C)c1ccc(C(CN)c2c[nH]c3ccccc23)cc1 (stereo not given),31.86 ± 0.092
23,O=C(NC(=S)Nc1ccc(N2CCN(C(=O)c3ccccc3)CC2)cc1)c1cccs1,0.881 ± 1.6
24,COc1ccc2[nH]c(=O)c3c(c2c1)OC(C)(C)C=C3,-32.8 ± 0.38
25,COc1cc(/C=C/C(=O)O)cc(S(=O)(=O)NCCCO)c1OC,0.101 ± 4

row,SMILES,CD40L-induced NF-kB luciferase activity
1,O=C(Cc1ccc(Br)cc1)c1ccc(O)cc1O,32.9 ± 18
2,C/C=C/c1ccc(OCCCCN2CC(C)CC(C)C2)c(OC)c1 (stereo not given),1.73 ± 0.88
3,CC[N+](C)(CC)CCOC(=O)C(O)(c1ccccc1)C1CCCCC1 (stereo not given),-15.3 ± 1.7
4,CCn1cc(CN2N=C(C)CC2c2ccccc2)c(C)n1 (stereo not given),2.59 ± 4
5,CCOc1ccccc1Oc1coc2cc(OCC(=O)O)ccc2c1=O,-5.79 ± 5.2
6,O=C1C2CC=C(Cl)CC2C(=O)N1CCc1c[nH]c2ccccc12 (stereo not given),4.17 ± 2.5
7,Nc1ccc(-c2nc3ncccc3o2)c(Cl)c1,78.7 ± 4
8,COC(=O)C1=C(C)NC(C)=C([N+](=O)[O-])C1c1ccccc1C(F)(F)F (stereo not given),-13.1 ± 0.81
9,CCNC1=C(Cl)C(=O)c2ccccc2C1=O,3.96 ± 1.3
10,COc1c(O)ccc2c1CN1CCc3cc4c(cc3C1C2)OCO4 (stereo not given),9.86 ± 12
11,Cc1ccc2c(c1)c1c(n2C)C(=O)CCC1,1.84 ± 0.52
12,CN(C)CCCN1c2ccccc2Sc2ccc(C(F)(F)F)cc21,2.86 ± 7.7
13,CCN(CC)CCOC(=O)C1(C2CCCCC2)CCCCC1,0.032 ± 4.6
14,N#CCC(N)=C(C#N)C#N,0.428 ± 1.6
15,Cc1nc2ccccc2c(=O)n1N,-2.06 ± 4.5
16,COc1ccc(OC)c(-c2oc3ccccc3c(=O)c2O)c1,6.82 ± 0.74
17,Cc1cccc(N2C(=O)C3C(c4ccccc4)OC4(C(=O)c5ccccc5C4=O)C3C2=O)c1 (stereo not given),-0.286 ± 0.72
18,CN1CCN(C2=Nc3ccccc3Oc3ccc(Cl)cc32)CC1,-0.724 ± 2.7
19,CCCCCCCCCC(=O)OCC(O)CO (stereo not given),-6.78 ± 1.2
20,COc1ccccc1N1C(=O)C2CC(C)=C(C)CC2C1=O (stereo not given),-4.81 ± 2.4
21,O=C1C(O)CC2c3ccccc3CC3(CCCC3)N12 (stereo not given),2.45 ± 2.2
22,O=C(/C=C/c1ccc(F)cc1)N1CC[C@@]2(O)CCCC[C@H]2C1,-1.13 ± 0.88
23,C[C@@H]1C[C@H]2[C@@H]3C[C@H](F)C4=CC(=O)C=C[C@]4(C)[C@@]3(F)[C@@H](O)C[C@]2(C)[C@@]1(O)C(=O)CO,-27.2 ± 0.89
24,CCOC(=O)C1=C2c3ccc4ccccc4c3CC(C)(C)N2C(=O)C1=O,2.5 ± 3.9
25,O=C(O)Cc1ccc(-c2ccccc2)cc1,1.04 ± 0.49
